In PubChem BioAssay AID1745853 (National Center for Advancing Translational Sciences (NCATS), 2022) one finds activity change, negative = inhibition data, which are given here for 29 molecules.

This is one part of the list. Further columns of the screen follow, without active or inactive calls.

What all share (experiment): Primary Screen for Target Class Profiling of Small Molecule Inhibitors of Methyltransferases
In assay [1] the target is Glycine N-methyltransferase (Homo sapiens) (UniProt Q14749). Particulars: purified enzyme, MTase-Glo SAH luminescence; measured here: GNMT inhibition; at 40 µM; stronger effect = lower value. In a few lines:
(§1)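 Each enzyme was reacted with SAM and its substrate, with compounds tested once at 40 uM; SAH formed was read by MTase-Glo luminescence.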

The target in assay [2] is Guanidinoacetate N-methyltransferase (Homo sapiens) (UniProt Q14353). The settings on record: purified enzyme, MTase-Glo SAH luminescence; measured here: GAMT inhibition; at 40 µM; stronger effect = lower value. An outline of the steps: as §1
The target in assay [3] is Histamine N-methyltransferase (Homo sapiens) (UniProt P50135). Particulars: purified enzyme, MTase-Glo SAH luminescence; measured here: HNMT inhibition; at 40 µM; stronger effect = lower value. An outline of the steps: as §1
The target of assay [4] is Nicotinamide N-methyltransferase (Homo sapiens) (UniProt P40261). The settings on record: purified enzyme, MTase-Glo SAH luminescence; measured here: NNMT inhibition; at 40 µM; stronger effect = lower value. In a few lines: as §1
The target in assay [5] is Phenylethanolamine N-methyltransferase (Homo sapiens) (UniProt P11086). Particulars: purified enzyme, MTase-Glo SAH luminescence; measured here: PNMT inhibition; at 40 µM; stronger effect = lower value. In a few lines: as §1
% is scaled to controls: 0 for no effect and ±100 for the full control effect.

For `CCc1cccc(N2C(=O)c3cc(C(=O)OC)nn3CC2(C)C(=O)NC2CCCCCC2)c1` (stereo not given), the activity change, negative = inhibition in assay [1] is 3.55%; in assay [2], 0%; in assay [3] it was -3.36%; in assay [4], 5.61%; in assay [5], 5.24%.
The like results for `CCOC(=O)c1cc2n(n1)CC(C)(C(=O)NC1CCCCC1)N(c1cccc(SC)c1)C2=O` (stereo not given) were, in that order, 3.7%, 4.05%, -7.67%, 3.05% and 3.63%.
The like results for `Cc1ccc(C(=O)N2C[C@@H](F)C[C@H]2C(=O)N2CCOCC2)cc1` were, in that order, 0.733%, 4.29%, 3.25%, -4.31% and 13.8%.
Consider `Cc1ccc(CNc2nc3c(S(=O)(=O)c4ccc(C)cc4)nnn3c3ccccc23)cc1`, for which the activity change, negative = inhibition in assay [1] is -7.57%; in assay [2], 2.36%; in assay [3] it was -1.74%; in assay [4] it was -0.965%; in assay [5] it was -9.83%.
For the molecule `N=C(N)c1ccccc1`, the activity change, negative = inhibition in assay [1] is 3.35%; in assay [2], 7.16%; in assay [3], -16.4%; in assay [4] it was -13.9%; in assay [5] it was 1.37%.
The matching figures for `CCCCCc1ccc(/C=C/C(=O)Nc2cc(Cl)ccc2C(=O)O)cc1`: -29.4%, -30.9%, -9.15%, -91% and -24.4%.
The matching figures for `CCOC(=O)c1cc2n(n1)CC(C)(C(=O)NCc1ccccc1)N(c1ccc(C(C)C)cc1)C2=O` (stereo not given): -0.068%, 3.51%, 7.22%, 2.47% and 0.615%.
The like results for `CCN(Cc1ccncc1)C(=O)C(CO)c1ccccc1` (stereo not given) were, in that order, -0.122%, 11.5%, 6.67%, -4.28% and 4.52%.
For the molecule `O=C(O)Cn1nc(C2CCOCC2)nc1C1CNC(=O)C1` (stereo not given), the activity change, negative = inhibition in assay [1] is -2.42%; in assay [2], -10%; in assay [3] it was -3.68%; in assay [4], -10.4%; in assay [5] it was -9.87%.
The like results for `Cc1nc(Nc2ccc(F)cc2)nc(N2CCc3ccccc3C2C)c1C` (stereo not given) were, in that order, -2.27%, 4.83%, -1.17%, -17.7% and 1.41%.
For the molecule `O=C1NCCOCCN(S(=O)(=O)c2ccc3c(c2)CCC3)[C@@H]2CCCC[C@H]12`, the activity change, negative = inhibition in assay [1] was -0.369%; in assay [2] it was 1.68%; in assay [3] it was 2.96%; in assay [4], -4.6%; in assay [5], -7.86%.
The matching figures for `Cc1ccc(N2C(=O)c3cc4ccccc4n3CC2(C)C(=O)NCCC(C)C)c(C)c1` (stereo not given): -3.08%, 4.78%, -2.36%, -0.898% and -9.9%.
The matching figures for `Cn1c(=O)c2ccc(C(=O)NC3CCCCC3)cc2n2c(SCc3ccccc3Cl)nnc12`: 3.69%, 2.7%, 7.3%, 14.8% and 9.92%.
The matching figures for `Nc1nc(SCc2ccc([N+](=O)[O-])cc2)c2ncn([C@@H]3O[C@H](CO)[C@@H](O)[C@H]3O)c2n1`: -0.384%, 8.41%, 7.83%, -10.3% and -5.44%.
As for `CCCN1C(=O)c2ccc(-c3ccco3)n2CC1(C)C(=O)NC1CCCCCC1` (stereo not given), the activity change, negative = inhibition in assay [1] was determined as 0.044%; in assay [2], 0%; in assay [3] it was 4.27%; in assay [4], 6.55%; in assay [5] it was 1.05%.
The like results for `O=C(CCn1ccc2cc(S(=O)(=O)N3CCCC3)ccc21)NCCc1ccccc1` were, in that order, 1.93%, 0%, 2.25%, -0.884% and 1.8%.
The like results for `Cc1cccc(/C=C/c2ccccc2)n1` were, in that order, -22.5%, -19%, -19.5%, -30.8% and -22.8%.
The matching figures for `CC1(C(=O)NCc2ccc(Cl)cc2)Cn2c(ccc2-c2ccco2)C(=O)N1C1CC1` (stereo not given): -0.76%, 3.91%, 0.146%, -2.62% and -4.45%.
On to `COc1ccc(-c2cc3n(n2)CC(C)(C(=O)NCc2ccccc2OC)N(c2cccc(SC)c2)C3=O)cc1` (stereo not given), for which the activity change, negative = inhibition was -3.73% in assay [1]; 5.54% in assay [2]; -3.5% in assay [3]; -7.04% in assay [4]; -7.16% in assay [5].
Consider `Cn1c(=O)c2ccc(C(=O)NC3CCCCC3)cc2n2c(=O)n(CC(=O)Nc3cccc(F)c3)nc12`, for which the activity change, negative = inhibition was 4.5% in assay [1]; 0% in assay [2]; -0.296% in assay [3]; 0.945% in assay [4]; 3.85% in assay [5].
The matching figures for `CN1C[C@H]2CN(Cc3c[nH]c4ccccc34)CCN2C1=O`: -3.09%, -3.33%, -1.08%, -1.67% and -12.2%.
On to `Cc1ccc(CN2C(=O)[C@@H]3C[C@@H](O)CN3C3(CN(Cc4ccccc4Cl)C3)C2=O)o1`, for which the activity change, negative = inhibition in assay [1] was -4.35%; in assay [2], -0.702%; in assay [3], -0.813%; in assay [4] it was -5.38%; in assay [5], -15.8%.
The matching figures for `CN(CC(=O)N1CCC(CCOc2ccc(F)cc2)C1)S(=O)(=O)c1ccc2c(c1)oc(=O)n2C` (stereo not given): -2.12%, 3.09%, -0.812%, -36% and 4.14%.
The matching figures for `COc1ccccc1CN1C(=O)c2nc3ccccc3n2CC1(C)C(=O)NCc1ccccc1` (stereo not given): -4.18%, 0%, 4.11%, 5.21% and -1.53%.
As for `CCOC(=O)C1CCN(C(=O)CN(C)S(=O)(=O)c2ccc3[nH]c4c(c3c2)CCCC4)CC1`, the activity change, negative = inhibition in assay [1] is -8.37%; in assay [2], -4.75%; in assay [3] it was -1.18%; in assay [4] it was -4.13%; in assay [5] it was -5.96%.
The like results for `O=C(Cc1cccs1)NC1CC(c2cc(N3CCC(O)C3)ncn2)C1` (stereo not given) were, in that order, -3.08%, -4.78%, 0.518%, -10.5% and 9.91%.
The like results for `c1ccc(-c2nnc([C@H]3CCN(C4CCC4)C3)o2)cc1` were, in that order, -10.9%, -5.27%, -26%, -12.8% and -4.02%.
The matching figures for `O=c1[nH]c2ccc(S(=O)(=O)N3CCc4ccccc4C3)cc2[nH]1`: 6.44%, 0%, 4.74%, 1.93% and -1.84%.
Turning to `CC(C)Cn1c(=O)c2ccc(Cl)cc2n2c(SCC(=O)Nc3cccc(Cl)c3)nnc12`, the activity change, negative = inhibition in assay [1] was -6.8%; in assay [2], 0.808%; in assay [3], -4.45%; in assay [4], -9.82%; in assay [5], -5.55%.
